# Data from the supplement of paper PMC8728848.
# The list shows a part of the results.
# B1: F4 (Escherichia coli), A0A6L9DDF0 (protein)
# chain: MKKTLIALALAASAVSGMAHAWTSGDFNGTVDIGGSIDATNYRQKWEWEVGTGLNGFYNALSELTNNDTKLTITVTGNKPILLGRTKEAFVTPTAGGWGGIPQIAFTDYKGAPVELKNPDGETNKGLAYFVLPMKNADGTEAGSVRVNASYAGAVVEKTSDSSAKLFSAYAGEVIRIFNGGLPVNVTQSELQSGVAAADRTALFGSLGKADLVAQFQAVIPGATVTDGTSSEHCTMRLLASAAYALGIADGQTIEATFNQAVTTSTQWSAPLNVAITYY
# Tests used:
# Test in all cases: glycan array binding signal (z-score within array); higher = stronger binding
# Conditions in all cases: glycan notation: IUPAC condensed, linker removed
# Fuc(a1-2)Gal = molecular target: Fuc(a1-2)Gal
# How it was run: (§1)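 Glycan array data came from 3228 arrays in the Consortium for Functional Glycomics database, and only arrays with an available protein sequence were kept. Glycan names were put into IUPAC-condensed notation, and columns mapping to the same glycan were averaged. The binding signal is a within-array Z-score, averaged across arrays of one protein sequence run at different concentrations or buffers and across linkers. A negative Z-score can be read as non-binding.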
# Fuc(a1-2)Gal(b1-3)GalNAc = molecular target: Fuc(a1-2)Gal(b1-3)GalNAc
# How it was run: as §1
# [1] = molecular target: Fuc(a1-2)Gal(b1-3)GalNAc(b1-3)Gal
# How it was run: as §1
# [2] = molecular target: Fuc(a1-2)Gal(b1-3)GalNAc(b1-3)Gal(a1-4)Gal(b1-4)Glc
# How it was run: as §1
# [3] = molecular target: Fuc(a1-2)Gal(b1-3)GalNAc(b1-4)[Neu5Ac(a2-3)]Gal(b1-4)Glc
# How it was run: as §1
# Fuc(a1-2)Gal(b1-3)GlcNAc = molecular target: Fuc(a1-2)Gal(b1-3)GlcNAc
# How it was run: as §1
# [4] = molecular target: Fuc(a1-2)Gal(b1-3)GlcNAc(b1-3)Gal(b1-4)Glc
# How it was run: as §1
# [5] = molecular target: Fuc(a1-2)Gal(b1-3)[Fuc(a1-4)]GlcNAc
# How it was run: as §1
# Fuc(a1-2)Gal(b1-4)Glc = molecular target: Fuc(a1-2)Gal(b1-4)Glc
# How it was run: as §1
# Fuc(a1-2)Gal(b1-4)GlcNAc = molecular target: Fuc(a1-2)Gal(b1-4)GlcNAc
# How it was run: as §1
# [6] = molecular target: Fuc(a1-2)Gal(b1-4)GlcNAc(b1-3)Gal(b1-4)GlcNAc
# How it was run: as §1
# [7] = molecular target: Fuc(a1-2)Gal(b1-4)GlcNAc(b1-3)Gal(b1-4)GlcNAc(b1-3)Gal(b1-4)GlcNAc
# How it was run: as §1
# [8] = molecular target: Fuc(a1-2)Gal(b1-4)[Fuc(a1-3)]GlcNAc
# How it was run: as §1
# [9] = molecular target: Fuc(a1-2)Gal(b1-4)[Fuc(a1-3)]GlcNAc(b1-3)Gal(b1-4)[Fuc(a1-3)]GlcNAc
# How it was run: as §1
# [10] = molecular target: Fuc(a1-2)Gal(b1-4)[Fuc(a1-3)]GlcNAc(b1-3)Gal(b1-4)[Fuc(a1-3)]GlcNAc(b1-3)Gal(b1-4)[Fuc(a1-3)]GlcNAc
# How it was run: as §1
# Fuc(a1-2)GlcNAc = molecular target: Fuc(a1-2)GlcNAc
# How it was run: as §1
# Fuc(a1-2)[Gal(a1-3)]Gal = molecular target: Fuc(a1-2)[Gal(a1-3)]Gal
# How it was run: as §1
# [11] = molecular target: Fuc(a1-2)[Gal(a1-3)]Gal(b1-3)GlcNAc
# How it was run: as §1
# [12] = molecular target: Fuc(a1-2)[Gal(a1-3)]Gal(b1-4)Glc
# How it was run: as §1
# [13] = molecular target: Fuc(a1-2)[Gal(a1-3)]Gal(b1-4)GlcNAc
# How it was run: as §1
# [14] = molecular target: Fuc(a1-2)[Gal(a1-3)]Gal(b1-4)[Fuc(a1-3)]GlcNAc
# How it was run: as §1
# [15] = molecular target: Fuc(a1-2)[Gal(a1-4)]Gal(b1-4)GlcNAc
# How it was run: as §1
# [16] = molecular target: Fuc(a1-2)[GalNAc(a1-3)]Gal
# How it was run: as §1
# [17] = molecular target: Fuc(a1-2)[GalNAc(a1-3)]Gal(b1-3)GlcNAc
# How it was run: as §1
# [18] = molecular target: Fuc(a1-2)[GalNAc(a1-3)]Gal(b1-4)Glc
# How it was run: as §1
# [19] = molecular target: Fuc(a1-2)[GalNAc(a1-3)]Gal(b1-4)GlcNAc
# How it was run: as §1
# [20] = molecular target: Fuc(a1-2)[GalNAc(a1-3)]Gal(b1-4)[Fuc(a1-3)]GlcNAc
# How it was run: as §1
# [21] = molecular target: Fuc(a1-2)[GalNAc(a1-4)]Gal(b1-4)GlcNAc
# How it was run: as §1
# [22] = molecular target: Fuc(a1-2)[GalNAc(b1-3)]Gal
# How it was run: as §1
# Fuc(a1-3)GlcNAc = molecular target: Fuc(a1-3)GlcNAc
# How it was run: as §1
# [23] = molecular target: Fuc(a1-3)[Gal(b1-4)]GlcNAc
# How it was run: as §1
# [24] = molecular target: Fuc(a1-3)[Gal(b1-4)]GlcNAc(b1-4)Gal(b1-4)[Fuc(a1-3)]GlcNAc
# How it was run: as §1
# [25] = molecular target: Fuc(a1-3)[Gal(b1-4)]GlcNAc(b1-4)Gal(b1-4)[Fuc(a1-3)]GlcNAc(b1-4)Gal(b1-4)[Fuc(a1-3)]GlcNAc
# How it was run: as §1
# [26] = molecular target: Fuc(a1-3)[Gal3S(b1-4)]GlcNAc
# How it was run: as §1
# [27] = molecular target: Fuc(a1-3)[GalNAc(b1-4)]GlcNAc
# How it was run: as §1
# Fuc(a1-4)GlcNAc = molecular target: Fuc(a1-4)GlcNAc
# How it was run: as §1
# Fuc(b1-3)GlcNAc = molecular target: Fuc(b1-3)GlcNAc
# How it was run: as §1
# Gal(a1-2)Gal = molecular target: Gal(a1-2)Gal
# How it was run: as §1
# Gal(a1-3)Gal = molecular target: Gal(a1-3)Gal
# How it was run: as §1
# Gal(a1-3)Gal(b1-3)GlcNAc = molecular target: Gal(a1-3)Gal(b1-3)GlcNAc
# How it was run: as §1
# Gal(a1-3)Gal(b1-4)Glc = molecular target: Gal(a1-3)Gal(b1-4)Glc
# How it was run: as §1
# Gal(a1-3)Gal(b1-4)GlcNAc = molecular target: Gal(a1-3)Gal(b1-4)GlcNAc
# How it was run: as §1
# [28] = molecular target: Gal(a1-3)Gal(b1-4)[Fuc(a1-3)]GlcNAc
# How it was run: as §1
# Gal(a1-3)GalNAc = molecular target: Gal(a1-3)GalNAc
# How it was run: as §1
# [29] = molecular target: Gal(a1-3)[Gal(a1-4)]Gal(b1-4)GlcNAc
# How it was run: as §1
binder,measurement,setting,value
B1,glycan array binding signal (z-score),Fuc(a1-2)Gal,-0.076
same,glycan array binding signal (z-score),Fuc(a1-2)Gal(b1-3)GalNAc,-0.145
same,glycan array binding signal (z-score),[1],-0.184
same,glycan array binding signal (z-score),[2],-0.028
same,glycan array binding signal (z-score),[3],-0.264
same,glycan array binding signal (z-score),Fuc(a1-2)Gal(b1-3)GlcNAc,-0.18
same,glycan array binding signal (z-score),[4],-0.147
same,glycan array binding signal (z-score),[5],1.02
same,glycan array binding signal (z-score),Fuc(a1-2)Gal(b1-4)Glc,-0.177
same,glycan array binding signal (z-score),Fuc(a1-2)Gal(b1-4)GlcNAc,-0.118
same,glycan array binding signal (z-score),[6],-0.206
same,glycan array binding signal (z-score),[7],-0.264
same,glycan array binding signal (z-score),[8],-0.068
same,glycan array binding signal (z-score),[9],-0.216
same,glycan array binding signal (z-score),[10],-0.171
same,glycan array binding signal (z-score),Fuc(a1-2)GlcNAc,0.043
same,glycan array binding signal (z-score),Fuc(a1-2)[Gal(a1-3)]Gal,-0.198
same,glycan array binding signal (z-score),[11],-0.237
same,glycan array binding signal (z-score),[12],-0.191
same,glycan array binding signal (z-score),[13],-0.072
same,glycan array binding signal (z-score),[14],-0.409
same,glycan array binding signal (z-score),[15],-0.156
same,glycan array binding signal (z-score),[16],-0.144
same,glycan array binding signal (z-score),[17],-0.23
same,glycan array binding signal (z-score),[18],-0.241
same,glycan array binding signal (z-score),[19],-0.038
same,glycan array binding signal (z-score),[20],-0.233
same,glycan array binding signal (z-score),[21],0.35
same,glycan array binding signal (z-score),[22],-0.33
same,glycan array binding signal (z-score),Fuc(a1-3)GlcNAc,-0.164
same,glycan array binding signal (z-score),[23],-0.223
same,glycan array binding signal (z-score),[24],-0.141
same,glycan array binding signal (z-score),[25],0.154
same,glycan array binding signal (z-score),[26],-0.144
same,glycan array binding signal (z-score),[27],-0.274
same,glycan array binding signal (z-score),Fuc(a1-4)GlcNAc,-0.215
same,glycan array binding signal (z-score),Fuc(b1-3)GlcNAc,-0.106
same,glycan array binding signal (z-score),Gal(a1-2)Gal,-0.128
same,glycan array binding signal (z-score),Gal(a1-3)Gal,-0.13
same,glycan array binding signal (z-score),Gal(a1-3)Gal(b1-3)GlcNAc,-0.257
same,glycan array binding signal (z-score),Gal(a1-3)Gal(b1-4)Glc,-0.243
same,glycan array binding signal (z-score),Gal(a1-3)Gal(b1-4)GlcNAc,-0.155
same,glycan array binding signal (z-score),[28],-0.127
same,glycan array binding signal (z-score),Gal(a1-3)GalNAc,-0.124
same,glycan array binding signal (z-score),[29],-0.344
